Measurements taken from PMC4336329 (PLoS ONE, 2015).
About 14,000 (4.5%) of roughly 310,000 compounds showed an effect of 50% or more. The effect is printed as a negative number. Some of the results follow.

The compounds below were run against human ether-à-go-go-related gene (hERG) potassium channel (human, UniProt Q12809) (assay: primary screen, population patch clamp on CHO cells stably expressing hERG).
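Also: peak tail current of the secondary pulse compared with the same well before compound.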

Chain of human ether-à-go-go-related gene (hERG) potassium channel (Q12809 whole entry, looked up): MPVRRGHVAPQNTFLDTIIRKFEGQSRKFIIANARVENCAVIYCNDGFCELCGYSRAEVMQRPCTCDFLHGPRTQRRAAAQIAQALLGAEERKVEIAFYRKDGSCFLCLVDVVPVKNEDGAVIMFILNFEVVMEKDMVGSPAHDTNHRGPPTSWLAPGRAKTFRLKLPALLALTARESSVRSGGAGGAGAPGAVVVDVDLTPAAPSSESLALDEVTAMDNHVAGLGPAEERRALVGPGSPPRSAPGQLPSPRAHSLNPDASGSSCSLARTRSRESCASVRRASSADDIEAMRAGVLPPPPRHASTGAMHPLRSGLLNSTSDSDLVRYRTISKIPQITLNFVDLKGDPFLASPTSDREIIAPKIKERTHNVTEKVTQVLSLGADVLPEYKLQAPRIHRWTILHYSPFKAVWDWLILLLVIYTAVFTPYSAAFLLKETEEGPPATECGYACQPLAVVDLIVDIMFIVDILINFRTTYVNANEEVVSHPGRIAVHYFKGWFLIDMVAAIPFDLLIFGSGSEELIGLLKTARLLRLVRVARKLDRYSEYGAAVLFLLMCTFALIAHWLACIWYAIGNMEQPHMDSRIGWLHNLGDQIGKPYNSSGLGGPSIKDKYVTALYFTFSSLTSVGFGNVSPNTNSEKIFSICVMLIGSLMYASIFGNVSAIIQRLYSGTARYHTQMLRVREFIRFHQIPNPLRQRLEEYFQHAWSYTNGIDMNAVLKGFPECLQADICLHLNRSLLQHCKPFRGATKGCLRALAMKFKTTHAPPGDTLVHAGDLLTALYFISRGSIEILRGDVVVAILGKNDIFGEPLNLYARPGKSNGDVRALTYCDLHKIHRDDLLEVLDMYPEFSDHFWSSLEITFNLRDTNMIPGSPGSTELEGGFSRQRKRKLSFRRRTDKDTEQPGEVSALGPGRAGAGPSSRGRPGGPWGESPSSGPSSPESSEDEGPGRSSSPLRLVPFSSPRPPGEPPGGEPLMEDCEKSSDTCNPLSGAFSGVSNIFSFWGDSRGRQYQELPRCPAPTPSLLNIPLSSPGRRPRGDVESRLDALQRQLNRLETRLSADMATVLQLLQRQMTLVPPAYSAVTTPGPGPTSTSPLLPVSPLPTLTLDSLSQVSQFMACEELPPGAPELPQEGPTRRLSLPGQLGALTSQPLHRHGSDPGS

Row | Compound | hERG current change (%, negative = inhibition) at 10uM [%]
1 | COC(=O)c1c(C(=O)OC)c(-c2cccc(C)c2)n2c1CS(=O)(=O)C2 | -22.4
2 | N#CC1=C(N)NC(SCC(=O)c2ccc(Cl)cc2)=C(C#N)C12CCCC2 | -20.6
3 | CCNC(=O)C(=O)NCC1OCCCN1S(=O)(=O)c1ccc(F)cc1C (stereo not drawn) | -1.08
4 | C=CCn1c(SCC(=O)c2c(N)n(CCC)c(=O)n(C)c2=O)nc2sc(CC)cc2c1=O | 10
5 | O=C(NCc1ccccc1F)C1CCC(=O)N(Cc2ccc(Cl)cc2)C1 (stereo not drawn) | -42.1
6 | CCn1c(-c2c(Cl)c(C)nn2C)n[nH]c1=S | 10.9
7 | Cc1ccccc1OCCC(=O)OCC(=O)NC(C)c1ccccc1 (stereo not drawn) | -28
8 | O=C(O)c1cccc(NC(=O)C23CC4CC(C2)CC(n2cnc(Cl)n2)(C4)C3)c1 | 6.02
9 | COC(=O)c1cc2occc2n1CC(=O)Nc1ccc(OC)c(OC)c1 | 4.76
10 | Cc1ccc(NC(=O)CN(C)C(=O)CSc2nc(C)cs2)cc1 | 2.57
11 | COCC(C)n1c(C)cc(C(=O)Cn2nc(C(=O)O)c3ccccc3c2=O)c1C (stereo not drawn) | 13.8
12 | CC1(C)C2CC=C(/C=N/NC(=O)C3CC3)C1C2 (stereo not drawn) | 20.2
13 | CCn1ncc(Br)c1C(=O)Nc1ccc(F)cc1F | 0.93
14 | Cc1cc(CN2CCC(n3nccc3NC(=O)c3ccccc3Cl)CC2)cc(C)c1O | -74.2
15 | Cc1csc(CCc2nc(C)cs2)n1 | 9.29
16 | CC(=O)Nc1ccc(NC(=O)CSc2nnc(NC(=O)c3cccc(F)c3)s2)cc1 | 20.2
17 | Cc1nc(-c2ccccc2Cl)sc1C(=O)/C=C/N(C)C | 14.4
18 | O=C(O)CCC(=O)N(Cc1cccs1)Cc1cccs1 | -2.07
19 | NC(=O)c1ccc(NC(=O)CCN2C(=O)c3ccccc3C2=O)cc1 | 16
20 | COC(=O)c1ccc2c(=O)n(CCCN3CCCC3=O)c(=S)[nH]c2c1 | -5.1
21 | Cc1cc2c(cc1S(=O)(=O)Nc1c(C)cccc1C)n(C)c(=O)c(=O)n2C | -0.831
22 | C=C(C)CN1CC[C@]23c4c5ccc(O)c4O[C@H]2c2[nH]c4ccccc4c2C[C@@]3(O)C1C5.Cl.O | 4.9

Row | Compound | hERG current change (%, negative = inhibition) at 10uM [%]
23 | O=C1COCCOCCOCC(=O)NCCN1 | 23.4
24 | COc1ccc(CCNC(=O)CSc2cn(Cc3ccccc3)c3ccccc23)cc1OC | 3.04
25 | Cc1csc(NC(=O)c2sc3nc(-c4cccs4)ccc3c2N)n1 | 5.65
26 | Cc1cc(S(=O)(=O)n2cnc3cc([N+](=O)[O-])ccc32)ccc1Cl | -2.69
27 | O=C(Nc1ccc2c(c1)OCO2)C1CCCN1C(=O)OCc1ccccc1 (stereo not drawn) | -0.907
28 | COc1ccc(CCNC(=O)C2CCCN2C(=O)Nc2cccc(OC)c2)cc1 (stereo not drawn) | 10.9
29 | Cc1ccc(-c2csc3ncn(CC(N)=O)c(=O)c23)cc1C | 12.9
30 | CCNc1nc(NCC)n2c(SCC(=O)N(CC)C3CCCCC3)nnc2n1 | -37.2
31 | O=C(Cc1cccs1)Nc1nnc(SCC(=O)N2CCCCC2)s1 | -3.21
32 | CC(NC(=O)c1cc(-c2ccc(Br)cc2)on1)c1ccccc1 (stereo not drawn) | 2.49
33 | CCOc1ccc(-c2nnc(-c3ccco3)o2)cc1OCC | -4.11
34 | O=C(NC1CCCCC1)C(c1ccncc1)N(C(=O)c1csnn1)c1ccc(F)cc1 (stereo not drawn) | 24.5
35 | Cc1ccc(S(=O)(=O)N(CC(=O)N2CCN(c3ccc(F)cc3)CC2)C2CCCCC2)cc1 | -43.7
36 | C#C[C@@]1(O)CCC2C3CCC4=C/C(=N/OCC(=O)NC(C(=O)O)C(C)O)CC[C@]4(C)C3CC[C@@]21C (stereo partly drawn) | 13.6
37 | CC(Oc1ccc(Cl)cc1)C(=O)Nc1cccc(S(=O)(=O)N2CCOCC2)c1 (stereo not drawn) | -39.2
38 | O=C(COC(=O)C1=COCCO1)Nc1ccccc1OC(F)F | 4.81
39 | CC(Oc1ccccc1)C(=O)N1CCN=C1SCc1ccccc1 (stereo not drawn) | -10
40 | O=C(c1ccc(Cl)cc1)C1CCN(C(=O)N2CCOCC2)CC1 | -3.46
41 | CCN(CC)S(=O)(=O)c1cc(C(=O)OCC(=O)c2ccc3c(c2)NC(=O)CO3)ccc1F | 0.331
42 | Cc1cccc(NC(=S)NCC(C)CSc2ccc(Cl)cc2)c1 (stereo not drawn) | 32.5
43 | CCOC(=O)c1ccccc1NS(=O)(=O)c1ccc(C)cc1 | -3.6
44 | CCCCOC(=O)C(C)c1c(C)[nH]c(=S)[nH]c1=O (stereo not drawn) | 20.8

Row | Compound | hERG current change (%, negative = inhibition) at 10uM [%]
45 | O=[N+]([O-])c1ccc2ccn(C3OCC(O)C(O)C3O)c2c1 (stereo not drawn) | 7.86
46 | COc1ccc(-n2ccc(=O)c(C(=O)Nc3ccc(S(=O)(=O)Nc4nccs4)cc3)n2)cc1 | 11.9
47 | Cc1cccc(NC(=O)NCCN2CCN(c3ccccc3)CC2)c1C | -9.69
48 | CCn1c(COc2ccc(C)cc2)nc2ccccc21 | -7.31
49 | Cc1ccc(S(=O)(=O)N2CCC(C(=O)NCC3CCCCC3)CC2)cc1 | -5.7
50 | CC(C)(C)C(=O)O/N=C(\N)c1ccc(Oc2cc(Cl)cc(Cl)c2)c([N+](=O)[O-])c1 | 5.82
51 | CN(C)C(=O)c1ccc(Nc2nnc(-c3ccc(O)cc3)c3ccccc23)cc1 | 3.89
52 | CSc1nsc(SCC(=O)N2CCN(c3ccccc3)CC2)n1 | -29.2
53 | CCN(CC)c1nc2cc(C)ccc2cc1/C=C(\C#N)C(N)=O | 13.6
54 | O=C(COc1ccc(Cl)cc1[N+](=O)[O-])N1CCCCCC1 | 22.3
55 | COc1ccccc1NC(=O)CCc1nnc2ccc(N3CCN(C)CC3)nn12 | 14.7
56 | COc1ccc(CN2CCN(C(C)C(=O)N3CCc4ccccc43)CC2)cc1OC (stereo not drawn) | -74
57 | c1ccc(N=Nc2ccc3cccccc2-3)cc1 | 8.38
58 | CCOC(=O)O[C@]1(C(=O)OCCl)CC[C@H]2[C@@H]3CCC4=CC(=O)C=C[C@]4(C)[C@H]3[C@@H](O)C[C@@]21C | 15.1
59 | Cc1ccccc1C(=O)N1CCN(c2ccc(NC(=O)c3cccnc3)cc2)CC1 | -23
60 | COc1cc(-c2nnc(NC(=O)CS(=O)(=O)c3ccc(F)cc3)o2)cc(OC)c1OC | 22.4
61 | COc1ccc2c(c1)c(CC(=O)OCC(N)=O)c(C)n2C(=O)c1ccc(Cl)cc1 | -3.15
62 | O=C(Nc1nccs1)c1ccc(-c2ccc(F)cc2)o1 | -0.742
63 | COc1ccc(C(=O)CN2CCN(S(=O)(=O)c3cccc([N+](=O)[O-])c3)CC2)cc1 | -112
64 | COc1ccc(N2C(=NC(=O)c3ccc(Br)cc3)SC3CS(=O)(=O)CC32)cc1 (stereo not drawn) | 6.78
65 | Cc1nc(Cl)c(C#N)cc1-c1ccccc1 | -12.2
66 | Cc1ccc(-c2cc(C(=O)N3CCCc4ccccc43)c3ccccc3n2)cc1 | -2.95

Row | Compound | hERG current change (%, negative = inhibition) at 10uM [%]
67 | Brc1ccc(-c2cn3ccccc3n2)s1 | -15.4
68 | Cc1nonc1N1CCN(Cc2cn[nH]c2-c2ccc3c(c2)OCO3)CC1 | -26.3
69 | CCCCOC(=O)C1=C(C)NC(=O)NC1c1cc2c(cc1Br)OCO2 (stereo not drawn) | 7.08
70 | CN(C)C(/C=C/Nc1cccc(Br)c1)=C(C#N)C#N | 9.79
71 | Cc1c(/C=C/C(=O)c2ccc(C(C)C)cc2)cnn1C | -5.37
72 | COc1ccc(-c2cn3cc(C)ccc3n2)cc1Br | 16.6
73 | CC1CCCCC1NC(=S)Nc1ccc(Cl)cc1Cl (stereo not drawn) | 4.31
74 | COc1ccc(-c2cc(C(=O)N3CCN(c4ccc(F)cc4)CC3)no2)cc1OC | 12.5
75 | CSCCC(NC(=O)c1ccccc1Cl)C(=O)NCC(c1ccco1)N1CCCCC1 (stereo not drawn) | -17.9
76 | CCn1cc(C(=O)N2CC(C)CC(C)C2)c(=O)c2cc(S(=O)(=O)N3CCCC3)ccc21 (stereo not drawn) | 6.81
77 | COc1ccc(C(=O)NC(=S)Nc2ccc(CN3CCOCC3)cc2)cc1Br | 15.6
78 | Cc1c(C(=O)O)sc2nc(/C=C/c3ccccc3OC(F)F)[nH]c(=O)c12 | 12.7
79 | COc1ccc(CNS(=O)(=O)c2ccc(-c3cc(C)no3)cc2)cc1 | 4.28
80 | CCOC(=O)c1c(NC(=O)C(=O)N/N=C(\C)c2ccc(OC)cc2)sc2c1CCCCC2 | 13
81 | COC(=O)c1ccccc1C(=O)c1ccc2c(c1)NC(=O)CO2 | 7.43
82 | Cn1c(=O)[nH]c(=O)c2c1nc(N1CCNCC1)n2Cc1ccccc1Cl | 11.1
83 | COc1ccc2c(COC(=O)CNS(=O)(=O)c3ccc(C)c(C)c3)cc(=O)oc2c1 | -57.7
84 | O=C(O)C1=C[C@H](c2cccs2)C[C@H](OCCCCO)O1 | 7.52
85 | COc1cc(-c2nn3c(COc4ccccc4)nnc3s2)cc(OC)c1OC | 14.8
86 | CCCCCCCCCCNC(=O)CCn1[nH]c(=O)c2ccccc2c1=O | 12.2
87 | COc1ccc(S(=O)(=O)NCc2ccccc2)cc1 | -6.46
